The text below walks through data of the supplement of paper PMC12423691.

The list shows a part of the results. Binding of human transcription factors and regulators to the viral nucleoprotein by AlphaScreen, crude cell-free proteins, amounts not normalised, one pass. Fold of the Venus control; higher = more signal. No active / inactive call. Single-pass screen; sequences are the whole Swiss-Prot entries looked up by name.

Sequences and labels used below:
B1: TADA2B, Q86TJ2 (protein)
chain: MAELGKKYCVYCLAEVSPLRFRCTECQDIELCPECFSAGAEIGHHRRYHGYQLVDGGRFTLWGPEAEGGWTSREEQLLLDAIEQFGFGNWEDMAAHVGASRTPQEVMEHYVSMYIHGNLGKACIPDTIPNRVTDHTCPSGGPLSPSLTTPLPPLDISVAEQQQLGYMPLRDDYEIEYDQDAETLISGLSVNYDDDDVEIELKRAHVDMYVRKLKERQRRKNIARDYNLVPAFLGKDKKEKEKALKRKITKEEKELRLKLRPLYQFMSCKEFDDLFENMHKEKMLRAKIRELQRYRRNGITKMEESAEYEAARHKREKRKENKNLAGSKRGKEDGKDSEFAAIENLPGFELLSDREKVLCSSLNLSPARYVTVKTIIIKDHLQKRQGIPSKSRLPSYLDKVLKKRILNFLTESGWISRDAS
B2: SOHLH1, Q5JUK2 (protein)
chain: MASRCSEPYPEVSRIPTVRGCNGSLSGALSCCEDSARGSGPPKAPTVAEGPSSCLRRNVISERERRKRMSLSCERLRALLPQFDGRREDMASVLEMSVQFLRLASALGPSQEQHAILASSKEMWHSLQEDVLQLTLSSQIQAGVPDPGTGASSGTRTPDVKAFLESPWSLDPASASPEPVPHILASSRQWDPASCTSLGTDKCEALLGLCQVRGGLPPFSEPSSLVPWPPGRSLPKAVRPPLSWPPFSQQQTLPVMSGEALGWLGQAGPLAMGAAPLGEPAKEDPMLAQEAGSALGSDVDDGTSFLLTAGPSSWPGEWGPGFRAGPPA
B3: CREBL2, O60519 (protein)
chain: MDDSKVVGGKVKKPGKRGRKPAKIDLKAKLERSRQSARECRARKKLRYQYLEELVSSRERAICALREELEMYKQWCMAMDQGKIPSEIKALLTGEEQNKSQQNSSRHTKAGKTDANSNSW
B4: ZNF148, Q9UQR1 (protein)
chain: MNIDDKLEGLFLKCGGIDEMQSSRTMVVMGGVSGQSTVSGELQDSVLQDRSMPHQEILAADEVLQESEMRQQDMISHDELMVHEETVKNDEEQMETHERLPQGLQYALNVPISVKQEITFTDVSEQLMRDKKQIREPVDLQKKKKRKQRSPAKILTINEDGSLGLKTPKSHVCEHCNAAFRTNYHLQRHVFIHTGEKPFQCSQCDMRFIQKYLLQRHEKIHTGEKPFRCDECGMRFIQKYHMERHKRTHSGEKPYQCEYCLQYFSRTDRVLKHKRMCHENHDKKLNRCAIKGGLLTSEEDSGFSTSPKDNSLPKKKRQKTEKKSSGMDKESALDKSDLKKDKNDYLPLYSSSTKVKDEYMVAEYAVEMPHSSVGGSHLEDASGEIHPPKLVLKKINSKRSLKQPLEQNQTISPLSTYEESKVSKYAFELVDKQALLDSEGNADIDQVDNLQEGPSKPVHSSTNYDDAMQFLKKKRYLQAASNNSREYALNVGTIASQPSVTQAAVASVIDESTTASILESQALNVEIKSNHDKNVIPDEVLQTLLDHYSHKANGQHEISFSVADTEVTSSISINSSEVPEVTPSENVGSSSQASSSDKANMLQEYSKFLQQALDRTSQNDAYLNSPSLNFVTDNQTLPNQPAFSSIDKQVYATMPINSFRSGMNSPLRTTPDKSHFGLIVGDSQHSFPFSGDETNHASATSTQDFLDQVTSQKKAEAQPVHQAYQMSSFEQPFRAPYHGSRAGIATQFSTANGQVNLRGPGTSAEFSEFPLVNVNDNRAGMTSSPDATTGQTFG
B5: RFX5, P48382 (protein)
chain: MAEDEPDAKSPKTGGRAPPGGAEAGEPTTLLQRLRGTISKAVQNKVEGILQDVQKFSDNDKLYLYLQLPSGPTTGDKSSEPSTLSNEEYMYAYRWIRNHLEEHTDTCLPKQSVYDAYRKYCESLACCRPLSTANFGKIIREIFPDIKARRLGGRGQSKYCYSGIRRKTLVSMPPLPGLDLKGSESPEMGPEVTPAPRDELVEAACALTCDWAERILKRSFSSIVEVARFLLQQHLISARSAHAHVLKAMGLAEEDEHAPRERSSKPKNGLENPEGGAHKKPERLAQPPKDLEARTGAGPLARGERKKSVVESSAPGANNLQVNALVARLPLLLPRAPRSLIPPIPVSPPILAPRLSSGALKVATLPLSSRAGAPPAAVPIINMILPTVPALPGPGPGPGRAPPGGLTQPRGTENREVGIGGDQGPHDKGVKRTAEVPVSEASGQAPPAKAAKQDIEDTASDAKRKRGRPRKKSGGSGERNSTPLKSAAAMESAQSSRLPWETWGSGGEGNSAGGAERPGPMGEAEKGAVLAQGQGDGTVSKGGRGPGSQHTKEAEDKIPLVPSKVSVIKGSRSQKEAFPLAKGEVDTAPQGNKDLKEHVLQSSLSQEHKDPKATPP
B6: SNAI2, O43623 (protein)
chain: MPRSFLVKKHFNASKKPNYSELDTHTVIISPYLYESYSMPVIPQPEILSSGAYSPITVWTTAAPFHAQLPNGLSPLSGYSSSLGRVSPPPPSDTSSKDHSGSESPISDEEERLQSKLSDPHAIEAEKFQCNLCNKTYSTFSGLAKHKQLHCDAQSRKSFSCKYCDKEYVSLGALKMHIRTHTLPCVCKICGKAFSRPWLLQGHIRTHTGEKPFSCPHCNRAFADRSNLRAHLQTHSDVKKYQCKNCSKTFSRMSLLHKHEESGCCVAH
B7: NKX2-8, O15522 (protein)
chain: MATSGRLSFTVRSLLDLPEQDAQHLPRREPEPRAPQPDPCAAWLDSERGHYPSSDESSLETSPPDSSQRPSARPASPGSDAEKRKKRRVLFSKAQTLELERRFRQQRYLSAPEREQLASLLRLTPTQVKIWFQNHRYKLKRARAPGAAESPDLAASAELHAAPGLLRRVVVPVLVRDGQPCGGGGGGEVGTAAAQEKCGAPPAAACPLPGYPAFGPGSALGLFPAYQHLASPALVSWNW
B8: ZNF174, Q15697 (protein)
chain: MAAKMEITLSSNTEASSKQERHIIAKLEEKRGPPLQKNCPDPELCRQSFRRFCYQEVSGPQEALSQLRQLCRQWLQPELHTKEQILELLVMEQFLTILPPEIQARVRHRCPMSSKEIVTLVEDFHRASKKPKQWVAVCMQGQKVLLEKTGSQLGEQELPDFQPQTPRRDLRESSPAEPSQAGAYDRLSPHHWEKSPLLQEPTPKLAGTEAPRMRSDNKENPQQEGAKGAKPCAVSAGRSKGNGLQNPEPRGANMSEPRLSRRQVSSPNAQKPFAHYQRHCRVEYISSPLKSHPLRELKKSKGGKRSLSNRLQHLGHQPTRSAKKPYKCDDCGKSFTWNSELKRHKRVHTGERPYTCGECGNCFGRQSTLKLHQRIHTGEKPYQCGQCGKSFRQSSNLHQHHRLHHGD
B9: ZNF445, P59923 (protein)
chain: MPPGRWHAAYPAQAQSSRERGRLQTVKKEEEDESYTPVQAARPQTLNRPGQELFRQLFRQLRYHESSGPLETLSRLRELCRWWLRPDVLSKAQILELLVLEQFLSILPGELRVWVQLHNPESGEEAVALLEELQRDLDGTSWRDPGPAQSPDVHWMGTGALRSAQIWSLASPLRSSSALGDHLEPPYEIEARDFLAGQSDTPAAQMPALFPREGCPGDQVTPTRSLTAQLQETMTFKDVEVTFSQDEWGWLDSAQRNLYRDVMLENYRNMASLVGPFTKPALISWLEAREPWGLNMQAAQPKGNPVAAPTGDDLQSKTNKFILNQEPLEEAETLAVSSGCPATSVSEGIGLRESFQQKSRQKDQCENPIQVRVKKEETNFSHRTGKDSEVSGSNSLDLKHVTYLRVSGRKESLKHGCGKHFRMSSHHYDYKKYGKGLRHMIGGFSLHQRIHSGLKGNKKDVCGKDFSLSSHHQRGQSLHTVGVSFKCSDCGRTFSHSSHLAYHQRLHTQEKAFKCRVCGKAFRWSSNCARHEKIHTGVKPYKCDLCEKAFRRLSAYRLHRETHAKKKFLELNQYRAALTYSSGFDHHLGDQSGEKLFDCSQCRKSFHCKSYVLEHQRIHTQEKPYKCTKCRKTFRWRSNFTRHMRLHEEEKFYKQDECREGFRQSPDCSQPQGAPAVEKTFLCQQCGKTFTRKKTLVDHQRIHTGEKPYQCSDCGKDFAYRSAFIVHKKKHAMKRKPEGGPSFSQDTVFQVPQSSHSKEEPYKCSQCGKAFRNHSFLLIHQRVHTGEKPYKCRECGKAFRWSSNLYRHQRIHSLQKQYDCHESEKTPNVEPKILTGEKRFWCQECGKTFTRKRTLLDHKGIHSGEKRYKCNLCGKSYDRNYRLVNHQRIHSTERPFKCQWCGKEFIGRHTLSSHQRKHTRAAQAERSPPARSSSQDTKLRLQKLKPSEEMPLEDCKEACSQSSRLTGLQDISIGKKCHKCSICGKTFNKSSQLISHKRFHTRERPFKCSKCGKTFRWSSNLARHMKNHIRD
B10: MEIS3, Q99687 (protein)
chain: MARRYDELPHYPGIVDGPAALASFPETVPAVPGPYGPHRPPQPLPPGLDSDGLKREKDEIYGHPLFPLLALVFEKCELATCSPRDGAGAGLGTPPGGDVCSSDSFNEDIAAFAKQVRSERPLFSSNPELDNLMIQAIQVLRFHLLELEKVHDLCDNFCHRYITCLKGKMPIDLVIEDRDGGCREDFEDYPASCPSLPDQNNMWIRDHEDSGSVHLGTPGPSSGGLASQSGDNSSDQGDGLDTSVASPSSGGEDEDLDQERRRNKKRGIFPKVATNIMRAWLFQHLSHPYPSEEQKKQLAQDTGLTILQVNNWFINARRRIVQPMIDQSNRTGQGAAFSPEGQPIGGYTETQPHVAVRPPGSVGMSLNLEGEWHYL
B11: EGLN1, Q9GZT9 (protein)
chain: MANDSGGPGGPSPSERDRQYCELCGKMENLLRCSRCRSSFYCCKEHQRQDWKKHKLVCQGSEGALGHGVGPHQHSGPAPPAAVPPPRAGAREPRKAAARRDNASGDAAKGKVKAKPPADPAAAASPCRAAAGGQGSAVAAEAEPGKEEPPARSSLFQEKANLYPPSNTPGDALSPGGGLRPNGQTKPLPALKLALEYIVPCMNKHGICVVDDFLGKETGQQIGDEVRALHDTGKFTDGQLVSQKSDSSKDIRGDKITWIEGKEPGCETIGLLMSSMDDLIRHCNGKLGSYKINGRTKAMVACYPGNGTGYVRHVDNPNGDGRCVTCIYYLNKDWDAKVSGGILRIFPEGKAQFADIEPKFDRLLFFWSDRRNPHEVQPAYATRYAITVWYFDADERARAKVKYLTGEKGVRVELNKPSDSVGKDVF

The target of the assay is nucleoprotein N of Crimean-Congo hemorrhagic fever virus. Nature of the assay: AlphaScreen luminescence signal relative to Venus negative control (fold); higher = stronger binding to CCHFV N. The method, then: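 AlphaScreen binding of cell-free made, FLAG-GST-tagged human transcription factors and regulators (crude translation products) to biotinylated N protein; signal as fold of the FLAG-GST-Venus control. One pass.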
On the technique in general: In Alpha technology, singlet oxygen from a donor bead excites a nearby acceptor bead.
In turn, B1 registered an AlphaScreen luminescence signal of 1.91.

Regarding B2, the AlphaScreen luminescence signal is 2.05. As for B3, the AlphaScreen luminescence signal stood at 1.91. B4 registered an AlphaScreen luminescence signal of 2.47. Molecule B5 showed an AlphaScreen luminescence signal of 4.28. B6 came in with an AlphaScreen luminescence signal of 2.47. B7 had an AlphaScreen luminescence signal of 3.12. Then B8, with 3.07; and B9, with 4.37; and B10, with 1.3.

Regarding B11, the AlphaScreen luminescence signal is 2.05.
